# A number of entries come with more than one value. They are shown here; other results are not. An entry can have further records. The records of an entry repeat one measurement in other runs, samples, wells, individuals or studies. Marks such as [2022-09] give the month of the run.
# System: 762968-020-R-J2-PDC spheroids viability
# Assay: Anticancer human tumor 762968-020-R-J2-PDC patient-derived colon carcinoma cell line growth inhibition [TAK]
# Details: spheroids with HUVEC and MSC
# Excerpt: Combinatorial screen of targeted agents with TAK-243 and ipatasertib in multi-cell type tumor spheroids
# A high-throughput screen of multi-cell type tumor spheroids was designed to identify active combinations of targeted small molecules and TAK-243 or ipatasertib. Complex spheroids include a stromal component modeled by human endothelial cells (HUVEC) and fibroblasts modeled by human mesenchymal stem cells (MSCs). The concentration ranges selected for each drug and investigational agent were based upon clinically achievable concentrations if the clinical Cmax of the agent was known.
# Compounds. […] If the clinical Cmax for an agent had not been determined, the highest concentration tested was 10 microM.
# NCI60 Cell Culture. […] The optimal seeding densities for each of the cell lines at each time point assessed were determined prior to performing the concentration response studies. […]
# For the pre-screen, cell seeding densities were determined from a titration spanning the range from 5,000 to 313 cells per well. […]
# 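Further: spheroids exposed to drug for 7 days before readout.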
# 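Wherever viability, T/C is given: 100% = DMSO vehicle control wells.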
IC50 (compound alone),SMILES,"viability, T/C (compound alone 30 µM, stronger effect = lower value)"
–,CC(C)NCC(C(=O)N1CCN(c2ncnc3c2C(C)CC3O)CC1)c1ccc(Cl)cc1 (configuration not stated),"13.5% [2020-02] and 81, 82.8, 85.4, 85.3, 87, 88, 82.3, 83, 81.2% [2020-03]"
73.1 nM [2020-02] and > 1 µM [2020-03],COc1c(OCCCN2CCOCC2)ccc2c3n(c(=NC(=O)c4cnc(N)nc4)nc12)CCN3,–

# — PubChem BioAssay AID2060349 (Molecular Pharmacology Branch, DTP, NCI, 2025)
